Data from the supplement of paper PMC4967469.
Lines with a small IC50 respond at low doses; a limit (>, <) means that the fit lies beyond the doses tested. For AUC the same curve is integrated over the 256-fold range of doses and scaled to a fraction; the more sensitive the line, the further below 1. For some assays here: Where the top dose is marked as inferred, it comes from the curve model; the source does not state it.

Assays:
Test in all cases: Viability of human cancer cell lines after 72 h of drug (GDSC screen)
Phenformin = compound: N=C(N)NC(=N)NCCc1ccccc1 [Phenformin]; details: top dose 4000 µM; top dose inferred
Protocol: (§1)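 Human cancer cell lines in 384-well plates, medium with 10% serum, drug for 72 h over a 256-fold dose range (nine 2-fold or five 4-fold steps up to the top dose). Adherent lines were fixed and stained with the nucleic acid dye Syto60, suspension lines read with resazurin; signal relative to control wells, capped at 0 and 100%. One two-parameter sigmoid per drug and line, fitted in a mixed model over all curves with the slope shared within a line.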

QL-XI-92 = compound: C=CC(=O)Nc1cc(NC(=O)c2ccc(C)c(NC(=O)c3ccno3)c2)cc(C(F)(F)F)c1 [QL-XI-92]; details: top dose 10.24 µM; top dose inferred
Protocol: as §1

WHI-P97 = compound: COc1cc2ncnc(Nc3cc(Br)c(O)c(Br)c3)c2cc1OC [WHI-P97]; details: top dose 10.24 µM; top dose inferred
Protocol: as §1

XL-184 = compound: COc1cc2nccc(Oc3ccc(NC(=O)C4(C(=O)Nc5ccc(F)cc5)CC4)cc3)c2cc1OC [XL-184]; details: top dose 5.12 µM; top dose inferred
Protocol: as §1

EHT 1864 = compound: O=c1cc(CN2CCOCC2)occ1OCCCCCSc1ccnc2cc(C(F)(F)F)ccc12 [EHT 1864]; details: top dose 10 µM; top dose inferred
Protocol: as §1

AG-014699 = compound: CNCc1ccc(-c2[nH]c3cc(F)cc4c3c2CCNC4=O)cc1 [AG-014699]; details: top dose 5 µM; top dose inferred
Protocol: as §1

NU-7441 = compound: O=c1cc(N2CCOCC2)oc2c(-c3cccc4c3sc3ccccc34)cccc12 [NU-7441]; details: top dose 2 µM; top dose inferred
Protocol: as §1

Gefitinib = compound: COc1cc2ncnc(Nc3ccc(F)c(Cl)c3)c2cc1OCCCN1CCOCC1 [Gefitinib]; details: top dose 0.5 µM
Protocol: as §1

Vinorelbine = compound: CCC1=C[C@@H]2CN(C1)Cc1c([nH]c3ccccc13)[C@@](C(=O)OC)(c1cc3c(cc1OC)N(C)[C@H]1[C@@](O)(C(=O)OC)[C@H](OC(C)=O)[C@]4(CC)C=CCN5CC[C@]31[C@@H]54)C2 [Vinorelbine]; details: top dose 0.064 µM; top dose inferred
Protocol: as §1

Cell Line	AUC (Phenformin)	IC50 (Phenformin)	AUC (QL-XI-92)	IC50 (QL-XI-92)	AUC (WHI-P97)	IC50 (WHI-P97)	AUC (XL-184)	IC50 (XL-184)	AUC (EHT 1864)	IC50 (EHT 1864)	AUC (AG-014699)	IC50 (AG-014699)	AUC (NU-7441)	IC50 (NU-7441)	AUC (Gefitinib)	IC50 (Gefitinib)	AUC (Vinorelbine)	IC50 (Vinorelbine)
NCI-H1048 (small cell lung carcinoma, adherent)	0.818	1980 µM	0.985	> 10.2 µM	0.932	> 10.2 µM	0.834	2.86 µM	0.894	9.91 µM	0.843	3.03 µM	0.961	> 2 µM	0.984	> 0.5 µM	0.647	0.00972 µM
NCI-H1435 (lung adenocarcinoma, semi-adherent)	0.801	1700 µM	0.993	> 10.2 µM	0.966	> 10.2 µM	0.97	> 5.12 µM	0.988	> 10 µM	0.992	> 5 µM	0.942	> 2 µM	0.983	> 0.5 µM	0.825	0.0329 µM
NCI-H1437 (lung adenocarcinoma, adherent)	0.685	841 µM	0.932	> 10.2 µM	0.974	> 10.2 µM	0.97	> 5.12 µM	0.949	> 10 µM	0.954	> 5 µM	0.944	> 2 µM	0.974	> 0.5 µM	0.519	0.00452 µM
NCI-H1563 (lung adenocarcinoma, adherent)	0.681	885 µM	0.839	9.02 µM	0.917	> 10.2 µM	0.965	> 5.12 µM	0.949	> 10 µM	0.985	> 5 µM	0.952	> 2 µM	0.979	> 0.5 µM	0.686	0.0148 µM
NCI-H1568 (lung adenocarcinoma, adherent)	0.966	> 4000 µM	0.958	> 10.2 µM	0.922	> 10.2 µM	0.982	> 5.12 µM	0.906	> 10 µM	0.961	> 5 µM	0.968	> 2 µM	0.956	> 0.5 µM	0.596	0.00785 µM
NCI-H1623 (lung adenocarcinoma, adherent)	0.846	3930 µM	0.985	> 10.2 µM	0.912	> 10.2 µM	0.97	> 5.12 µM	0.918	> 10 µM	0.963	> 5 µM	0.965	> 2 µM	0.828	0.407 µM	0.787	0.0348 µM
NCI-H1651 (lung adenocarcinoma, adherent)	0.712	1050 µM	0.987	> 10.2 µM	0.986	> 10.2 µM	0.981	> 5.12 µM	0.859	9.34 µM	0.778	2.19 µM	0.982	> 2 µM	0.984	> 0.5 µM	0.87	> 0.064 µM
NCI-H1688 (small cell lung carcinoma, adherent)	0.677	824 µM	0.967	> 10.2 µM	0.917	> 10.2 µM	0.902	> 5.12 µM	0.921	> 10 µM	0.976	> 5 µM	0.964	> 2 µM	0.986	> 0.5 µM	0.688	0.0142 µM
NCI-H1693 (lung adenocarcinoma, adherent)	0.829	> 4000 µM	0.964	> 10.2 µM	0.861	> 10.2 µM	0.924	> 5.12 µM	0.938	> 10 µM	0.892	> 5 µM	0.957	> 2 µM	0.904	> 0.5 µM	0.976	> 0.064 µM
NCI-H1755 (lung adenocarcinoma, adherent)	0.468	201 µM	0.771	4.56 µM	0.738	3.47 µM	0.539	0.417 µM	0.954	> 10 µM	0.923	> 5 µM	0.93	> 2 µM	0.972	> 0.5 µM	0.712	0.0177 µM
NCI-H1781 (lung adenocarcinoma, adherent)	0.989	> 4000 µM	0.883	> 10.2 µM	0.989	> 10.2 µM	0.926	> 5.12 µM	0.948	> 10 µM	0.989	> 5 µM	0.989	> 2 µM	0.972	> 0.5 µM	0.665	0.0115 µM
NCI-H1792 (lung adenocarcinoma, adherent)	0.689	798 µM	0.984	> 10.2 µM	0.984	> 10.2 µM	0.959	> 5.12 µM	0.989	> 10 µM	0.952	> 5 µM	0.982	> 2 µM	0.969	> 0.5 µM	0.814	0.0307 µM
NCI-H1944 (lung adenocarcinoma, adherent)	0.477	216 µM	0.91	> 10.2 µM	0.946	> 10.2 µM	0.952	> 5.12 µM	0.931	> 10 µM	0.985	> 5 µM	0.972	> 2 µM	0.955	> 0.5 µM	0.542	0.00523 µM
NCI-H2009 (lung adenocarcinoma, adherent)	0.669	761 µM	0.983	> 10.2 µM	0.977	> 10.2 µM	0.957	> 5.12 µM	0.969	> 10 µM	0.987	> 5 µM	0.976	> 2 µM	0.977	> 0.5 µM	0.645	0.0103 µM
NCI-H2023 (lung adenocarcinoma, adherent)	0.906	> 4000 µM	0.976	> 10.2 µM	0.975	> 10.2 µM	0.967	> 5.12 µM	0.975	> 10 µM	0.982	> 5 µM	0.952	> 2 µM	0.947	> 0.5 µM	0.879	> 0.064 µM
NCI-H2052 (mesothelioma, adherent)	0.962	> 4000 µM	0.965	> 10.2 µM	0.968	> 10.2 µM	0.973	> 5.12 µM	0.841	> 10 µM	0.961	> 5 µM	0.977	> 2 µM	0.98	> 0.5 µM	0.85	> 0.064 µM
NCI-H2087 (lung adenocarcinoma, semi-adherent)	0.537	317 µM	0.922	> 10.2 µM	0.983	> 10.2 µM	0.935	> 5.12 µM	0.953	> 10 µM	0.967	> 5 µM	0.974	> 2 µM	0.986	> 0.5 µM	0.645	0.0104 µM
NCI-H2172 (non-small cell lung carcinoma, adherent)	0.809	3080 µM	0.975	> 10.2 µM	0.97	> 10.2 µM	0.951	> 5.12 µM	0.868	> 10 µM	0.983	> 5 µM	0.958	> 2 µM	0.974	> 0.5 µM	0.932	> 0.064 µM
NCI-H2227 (small cell lung carcinoma, semi-adherent)	0.98	> 4000 µM	0.914	> 10.2 µM	0.978	> 10.2 µM	0.887	> 5.12 µM	0.986	> 10 µM	0.937	> 5 µM	0.955	> 2 µM	0.986	> 0.5 µM	0.968	> 0.064 µM
NCI-H2291 (lung adenocarcinoma, adherent)	0.979	> 4000 µM	0.982	> 10.2 µM	0.981	> 10.2 µM	0.984	> 5.12 µM	0.97	> 10 µM	0.944	> 5 µM	0.946	> 2 µM	0.978	> 0.5 µM	0.98	> 0.064 µM
NCI-H2347 (lung adenocarcinoma, adherent)	0.806	2570 µM	0.972	> 10.2 µM	0.98	> 10.2 µM	0.839	4.61 µM	0.968	> 10 µM	0.95	> 5 µM	0.914	> 2 µM	0.978	> 0.5 µM	0.751	0.0251 µM
NCI-H2405 (lung adenocarcinoma, adherent)	0.854	3700 µM	0.953	> 10.2 µM	0.948	> 10.2 µM	0.942	> 5.12 µM	0.973	> 10 µM	0.919	> 5 µM	0.976	> 2 µM	0.959	> 0.5 µM	0.834	0.0483 µM
NCI-H2444 (non-small cell lung carcinoma, adherent)	0.908	> 4000 µM	0.987	> 10.2 µM	0.986	> 10.2 µM	0.963	> 5.12 µM	0.988	> 10 µM	0.988	> 5 µM	0.978	> 2 µM	0.988	> 0.5 µM	0.928	> 0.064 µM
NCI-H2452 (mesothelioma, adherent)	0.934	> 4000 µM	0.984	> 10.2 µM	0.984	> 10.2 µM	0.984	> 5.12 µM	0.929	> 10 µM	0.95	> 5 µM	0.957	> 2 µM	0.981	> 0.5 µM	0.966	> 0.064 µM
NCI-H3122 (lung adenocarcinoma, adherent)	0.656	689 µM	0.974	> 10.2 µM	0.98	> 10.2 µM	0.948	> 5.12 µM	0.987	> 10 µM	0.986	> 5 µM	0.982	> 2 µM	0.982	> 0.5 µM	0.397	0.00206 µM
NUGC-4 (stomach, adherent)	0.978	> 4000 µM	0.987	> 10.2 µM	0.577	1.04 µM	0.87	4.8 µM	0.974	> 10 µM	0.988	> 5 µM	0.977	> 2 µM	0.859	0.418 µM	0.801	0.0314 µM
NY (osteosarcoma, adherent)	0.967	> 4000 µM	0.989	> 10.2 µM	0.979	> 10.2 µM	0.988	> 5.12 µM	0.959	> 10 µM	0.955	> 5 µM	0.957	> 2 µM	0.976	> 0.5 µM	0.547	0.00536 µM
OAW-42 (ovary, adherent)	0.78	1790 µM	0.982	> 10.2 µM	0.959	> 10.2 µM	0.951	> 5.12 µM	0.952	> 10 µM	0.957	> 5 µM	0.936	> 2 µM	0.871	> 0.5 µM	0.824	
